Out of some 410,000 compounds screened, about 6,400 (1.6%) were called active. The shares of active, inactive and inconclusive entries below differ from those in the screen. The call rests on the fitted dose curve; in most records, active means well fitted inhibition curve with a large enough effect; inconclusive means small, poorly fitted or top-dose-only effect; inactive means no such curve, though single readings can be large or run the other way. Potencies of inconclusive entries are left out as doubtful fits.
target: Glucagon-like peptide 1 receptor (Homo sapiens) (UniProt P43220); test: qHTS of GLP-1 Receptor Inverse Agonists (Inhibition Mode); conditions: HEK293 GLP-1R CRE-luciferase, luminescence, 24 h, GLP-1R form is constitutively active; activity change, negative = inhibition: at 38.3 µM (top of the series) unless noted; further: nearly all actives have a fitted effect of over 55% in size
Method in brief: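 qHTS in 1536-well format: reporter HEK293 cells expressing constitutive GLP-1R activity in DMEM + 10% Nu serum, 24 hr with compounds at 37 deg C, luminescence read after 12 min with detection reagent.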
On the % scale 0 is the no-effect control and ±100 the full control effect; potency means the concentration at half of the fitted maximal effect; tags describe the fitted curve by direction and shape.

Chain of UniProt P43220 (P43220 whole entry, looked up): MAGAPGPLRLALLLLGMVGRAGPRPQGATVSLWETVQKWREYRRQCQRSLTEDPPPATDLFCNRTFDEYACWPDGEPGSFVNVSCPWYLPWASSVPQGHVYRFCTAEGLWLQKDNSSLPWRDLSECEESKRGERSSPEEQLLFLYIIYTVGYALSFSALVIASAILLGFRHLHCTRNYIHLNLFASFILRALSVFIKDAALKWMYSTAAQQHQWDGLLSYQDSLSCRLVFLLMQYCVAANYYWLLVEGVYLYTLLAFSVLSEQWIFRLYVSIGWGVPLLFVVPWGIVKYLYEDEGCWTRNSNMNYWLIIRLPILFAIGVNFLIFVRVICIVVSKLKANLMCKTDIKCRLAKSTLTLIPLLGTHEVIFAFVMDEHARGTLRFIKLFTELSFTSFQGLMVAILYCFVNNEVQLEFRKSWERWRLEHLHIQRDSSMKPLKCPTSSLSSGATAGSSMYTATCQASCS

Row | Structure (SMILES) | Potency | activity change, negative = inhibition
1 | O=c1c(-c2cccnc2)nc2ccccc2n1C(CCc1ccccc1)c1nc2ccccc2[nH]1 (stereo unspecified) | inconclusive [inhibitor, single point] | –
2 | COc1ccc(C(C(=O)NC2CCCC2)N(CCC(C)C)C(=O)CCC(=O)Nc2cc(C)on2)cc1 (stereo unspecified) | inconclusive [inhibitor, partial curve, poor fit] | –
3 | CC(C(=O)N1CCCc2ccccc21)N1CCN(c2ccccn2)CC1 (stereo unspecified) | inconclusive [inhibitor, partial curve, poor fit] | –
4 | Cc1ccc(-n2c(=O)c3ccccc3n(CC(=O)Nc3cccc(C(F)(F)F)c3)c2=O)cc1 | inconclusive [inhibitor, single point] | –
5 | COC(=O)[C@@]12C[C@@H](CC(=O)NCc3cccc4ccccc34)C(=O)N(Cc3ccco3)C1=CCC(C)(C)C2 | inconclusive [inhibitor, partial curve, poor fit] | –
6 | O=[N+]([O-])c1cccc(NC(=S)N2CCc3ccccc32)c1 | inconclusive [inhibitor, partial curve, poor fit] | –
7 | CCOc1ccc(NC(=O)C23CC4CC(C2)CC(c2ccccc2)(C4)C3)cc1 | inconclusive [inhibitor, full curve] | –
8 | COc1ccc(C)cc1S(=O)(=O)Nc1ccc2c(c1)OCCO2 | inconclusive [inhibitor, partial curve, poor fit] | –
9 | CC(=O)NC1=NN(C(C)=O)C(C)(c2ccccc2)S1 (stereo unspecified) | inconclusive [inhibitor, full curve] | –
10 | COc1ccc2c(c1)CCCC2NS(=O)(=O)OCC(Cl)(Cl)Cl (stereo unspecified) | inconclusive [inhibitor, single point] | –
11 | Cc1ccc(C2(C)NC(=O)N(CCOc3ccccc3)C2=O)cc1 (stereo unspecified) | inconclusive [inhibitor, partial curve, poor fit] | –
12 | COCCNC(=O)C(=O)N/N=C(\C)CC(=O)Nc1cccc(C(F)(F)F)c1 | inconclusive [inhibitor, single point] | –
13 | CC(C)Cn1c(N)c(C(=O)COC(=O)C2Cc3ccccc3CN2S(C)(=O)=O)c(=O)n(C)c1=O (stereo unspecified) | inconclusive [inhibitor, partial curve, poor fit] | –
14 | CCN1CCc2c(C#N)c(NCc3ccccc3)nc(N(CC)CC)c2C1 | inconclusive [inhibitor, partial curve, poor fit] | –
15 | CC/C(=N\NC(=O)OC)c1ccc(OC(F)F)cc1 | – | inactive: 0.215%
16 | Cc1cc(C)c(NC(=O)CN2C(=O)CCSc3ccc(S(=O)(=O)N4CCCC4)cc32)c(C)c1 | – | inactive: 12.7%
17 | O=S(=O)(Nc1ccc(-c2nnc(SCc3ccc(Cl)cc3)o2)cc1)c1ccccc1 | inconclusive [inhibitor, single point] | –
18 | O=S(=O)(Nc1ccc(Cl)c(Cl)c1)N1CCOCC1 | inconclusive [inhibitor, single point] | –
19 | O=C(c1ccccc1-c1ncc[nH]1)N1CCc2c([nH]c3ccccc23)C1c1ccccn1 (stereo unspecified) | inconclusive [inhibitor, single point] | –
20 | Cc1ccc(S(=O)(=O)CC(=O)Nc2nc(-c3ccccc3)cs2)cc1 | inconclusive [inhibitor, single point] | –
21 | Cn1nnc(NCc2cc(Br)ccc2OCc2ccccc2F)n1 | inconclusive [inhibitor, partial curve] | –

Row | Structure (SMILES) | Potency | activity change, negative = inhibition
22 | COc1cc(Cl)c(NS(=O)(=O)c2ccc(-c3coc(C)n3)cc2)c(OC)c1 | inconclusive [inhibitor, partial curve] | –
23 | CC1CCCCN1CCCNC(=O)Cn1ncc2c3ccccc3n(Cc3ccccc3F)c2c1=O (stereo unspecified) | inconclusive [inhibitor, single point] | –
24 | CCOc1ccc(NC(=O)CN(C)C(=O)c2ccccc2OCc2cccc(C)c2)cc1OCC | inconclusive [inhibitor, partial curve, poor fit] | –
25 | Cc1cc(C)c2c(=N)c3ccccc3n(CCCCCCCCn3c4ccccc4c(=N)c4c(C)cc(C)nc43)c2n1 | inconclusive [inhibitor, single point] | –
26 | CCN(c1ncnc2c1cnn2-c1cccc(Cl)c1)C1CCCCC1 | inconclusive [inhibitor, partial curve, poor fit] | –
27 | CCCOC(=O)c1cc(-c2ccc(C=O)o2)ccc1Cl | inconclusive [inhibitor, single point] | –
28 | COc1cc(NC(=O)C/C(C)=N/NC(=O)c2ccccn2)c(OC)cc1Cl | inconclusive [inhibitor, single point] | –
29 | Cc1ccc(-c2n[nH]c(=S)n2/N=C/c2sccc2C)cc1 | – | inactive: 11.3%
30 | Cc1cccc(NC(=O)C2CCN(S(=O)(=O)c3ccc4ccccc4c3)CC2)n1 | inconclusive [inhibitor, single point] | –
31 | Cc1ccnc(NC(=O)Nc2ccc(F)cc2)c1 | – | inactive: -13.6%
32 | Cc1cccn2cc(-c3ccc(Cl)cc3)nc12 | inconclusive [inhibitor, single point] | –
33 | COC(=O)c1sccc1NC(=O)NC1CCCCC1 | inconclusive [inhibitor, partial curve, poor fit] | –
34 | Cc1ccccc1-n1cc(-c2ccc(Br)cc2)nc1SCC(N)=O | inconclusive [inhibitor, partial curve, poor fit] | –
35 | Cc1cc(C)cc(NC(=O)CCN2C(=O)c3ccccc3Sc3ncccc32)c1 | – | inactive: -8.19%
36 | COc1cc(/C=C(\C#N)C(=O)NCc2ccccc2)ccc1OCc1ccc(C(=O)O)cc1 | – | inactive: 13.1%
37 | CN(C)CCCNC(=O)c1cc(C(=O)c2ccc(F)cc2)c[nH]1 | inconclusive [inhibitor, partial curve, poor fit] | –
38 | O=C(N/C(=C/C=C/c1ccccc1)C(=O)N1CCCCC1)c1ccc([N+](=O)[O-])cc1 | inconclusive [inhibitor, partial curve, poor fit] | –
39 | Cc1ccc2cc(CN(Cc3ccco3)C(=O)c3cccs3)c(=O)[nH]c2c1 | inconclusive [inhibitor, full curve, poor fit] | –
40 | CCOc1ccccc1C(=O)N[C@H](C(=O)Nc1nc2c(s1)CCCC2)C(C)C | active: 10 µM | –
41 | COc1cc(CNCCO)cc(Br)c1OCc1ccccc1 | inconclusive [inhibitor, single point] | –
42 | COC(=O)C1(C(=O)OC)CCCCN(S(=O)(=O)c2ccc(C)cc2)CCC1 | inconclusive [inhibitor, partial curve, poor fit] | –

Row | Structure (SMILES) | Potency | activity change, negative = inhibition
43 | CN(CC(=O)Nc1ccc(Cl)cc1)C(=O)CCc1nc2sc3c(c2c(=O)[nH]1)CCCC3 | – | inactive: -19.8%
44 | C/C(=N\NC(=O)c1ccc(COc2ccccc2)cc1)c1ccncc1 | – | inactive: -18.4%
45 | Cc1ccc(Nc2nc(Cl)nc(NC3CCCCC3)n2)cc1 | inconclusive [inhibitor, full curve, poor fit] | –
46 | CN(C)c1ccc(C(=O)NCc2ccc3c(c2)CCN3C(=O)c2ccccc2)cc1 | – | inactive: -31.3%
47 | Cc1cc(NS(=O)(=O)c2ccc(NC(=O)COc3ccccc3C(C)(C)C)cc2)no1 | inconclusive [inhibitor, single point] | –
48 | COc1ccc(CCCNC(=O)C2(C)Cc3c(-c4ccc5c(c4)OCO5)ccnc3O2)cc1 (stereo unspecified) | inconclusive [inhibitor, full curve, poor fit] | –
49 | CC(=O)c1c(C)nn(CC(=O)NC2CCCN(Cc3ccc(CC(C)C)cc3)C2)c1C (stereo unspecified) | active: 11.2 µM | –
50 | Cc1ccccc1Cn1c(=O)sc2ccccc2c1=O | inconclusive [inhibitor, partial curve, poor fit] | –
51 | Cc1cc(C(=O)CN2C(=O)NC(c3ccccc3)(c3ccccc3)C2=O)c(C)n1Cc1ccccc1 | inconclusive [inhibitor, partial curve, poor fit] | –
52 | CCC[C@H]1CN(c2ccccc2)C(=O)[C@@H]1CC(=O)Nc1ccc(OC)cc1 | inconclusive [inhibitor, single point] | –
53 | O=C(N/N=C/C1C(c2ccccc2)C1(Cl)Cl)c1cccc(Br)c1 (stereo unspecified) | inconclusive [inhibitor, single point] | –
54 | Cc1cc(C)nc(Nc2nc(C(N)Cc3ccc(Cl)cc3)cs2)n1 (stereo unspecified) | inconclusive [inhibitor, single point] | –
55 | C=CCOc1ccccc1CN1CCN(CCc2ccccc2)C(CCO)C1 (stereo unspecified) | inconclusive [inhibitor, partial curve, poor fit] | –
56 | CN(C)Cc1ccc(CNC(=O)COc2ccc3ccccc3c2)cc1 | inconclusive [inhibitor, partial curve, poor fit] | –
57 | CC(=O)C1=C(O)C(=O)N(c2cc(C(C)(C)C)on2)C1c1ccc(Br)cc1 (stereo unspecified) | active: 8.91 µM | –
58 | COc1ccc2cnn(CCOc3cc(C)ccc3C(C)C)c(=O)c2c1OC | inconclusive [inhibitor, single point] | –
59 | O=C1/C(=C\c2ccccc2)SC(=S)N1CCC(=O)N1CCCCC1CCO (stereo unspecified) | inconclusive [inhibitor, partial curve, poor fit] | –
60 | Cc1cc(NC(=O)COC(=O)c2cc(S(=O)(=O)N(C)c3ccccc3)ccc2Cl)no1 | inconclusive [inhibitor, partial curve, poor fit] | –
61 | COc1cc(OC)cc(-c2c(-c3cccs3)c3cc(-c4cc(OC)c(OC)c(OC)c4)ccc3n2C)c1 | inconclusive [inhibitor, partial curve, poor fit] | –

From PubChem BioAssay AID624417 (National Center for Advancing Translational Sciences (NCATS), 2012)
